Test results published in PMC7718735.
Substitutions are numbered along the chain they refer to. Read-outs that look alike come from different tables or passages of the source. No constants are given. Whether binding was seen depends on the method and setting. Some binding calls cover weakened binding; strength is not graded here.

Sequences of proteins named here, by UniProt entry; tags and fusion partners are left off.
UniProt Q09825: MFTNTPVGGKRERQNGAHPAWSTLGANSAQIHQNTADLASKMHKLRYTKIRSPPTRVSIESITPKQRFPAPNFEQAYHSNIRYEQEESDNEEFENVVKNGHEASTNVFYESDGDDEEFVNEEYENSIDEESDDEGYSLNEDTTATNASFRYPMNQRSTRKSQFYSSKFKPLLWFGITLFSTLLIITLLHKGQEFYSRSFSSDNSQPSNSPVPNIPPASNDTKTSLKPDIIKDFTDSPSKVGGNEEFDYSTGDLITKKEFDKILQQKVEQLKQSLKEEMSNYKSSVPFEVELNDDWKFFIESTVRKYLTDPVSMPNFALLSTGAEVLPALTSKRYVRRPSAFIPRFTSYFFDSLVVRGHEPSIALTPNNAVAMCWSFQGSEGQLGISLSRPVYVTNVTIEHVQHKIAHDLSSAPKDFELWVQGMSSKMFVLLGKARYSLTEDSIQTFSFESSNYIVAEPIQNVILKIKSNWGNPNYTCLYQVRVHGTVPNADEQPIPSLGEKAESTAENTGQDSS

Legend:
[1] = target: T1, Cut11 L521F MYTH bait (S. pombe) (UniProt O13961); test: two-hybrid; split-ubiquitin membrane yeast two-hybrid (MYTH) in S. cerevisiae; bait-Cub-LexA-VP16 strains mated with the arrayed Nub prey library, diploids spotted in quadruplicate on SD-leu-trp-ade-his with 25 mM 3-AT, imaged every 24 hr for 4 days; positive by a colony density cutoff
T1 sequence: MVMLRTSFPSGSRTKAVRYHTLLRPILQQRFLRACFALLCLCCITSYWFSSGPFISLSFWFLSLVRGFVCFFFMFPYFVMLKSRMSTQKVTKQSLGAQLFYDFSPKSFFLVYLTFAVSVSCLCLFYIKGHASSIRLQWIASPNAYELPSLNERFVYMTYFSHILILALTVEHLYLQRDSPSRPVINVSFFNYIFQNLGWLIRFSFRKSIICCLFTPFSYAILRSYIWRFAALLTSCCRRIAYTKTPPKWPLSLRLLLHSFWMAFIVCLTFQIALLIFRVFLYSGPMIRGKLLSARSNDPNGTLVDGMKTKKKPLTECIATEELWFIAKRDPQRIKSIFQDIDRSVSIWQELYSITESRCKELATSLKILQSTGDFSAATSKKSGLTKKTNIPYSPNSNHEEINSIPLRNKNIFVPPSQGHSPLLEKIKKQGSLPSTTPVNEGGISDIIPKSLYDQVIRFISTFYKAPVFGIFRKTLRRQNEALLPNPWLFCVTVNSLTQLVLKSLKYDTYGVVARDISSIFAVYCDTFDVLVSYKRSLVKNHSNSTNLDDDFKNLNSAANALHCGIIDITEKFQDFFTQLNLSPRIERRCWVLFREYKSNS

[2] = target: T2, Cut11 MYTH bait (wild type) (S. pombe) (UniProt O13961); test: as above
T2 sequence: T1 sequence with F521L

[3] = target: T3, Lem2 MYTH bait (S. pombe) (UniProt Q10109); test: as above
T3 sequence: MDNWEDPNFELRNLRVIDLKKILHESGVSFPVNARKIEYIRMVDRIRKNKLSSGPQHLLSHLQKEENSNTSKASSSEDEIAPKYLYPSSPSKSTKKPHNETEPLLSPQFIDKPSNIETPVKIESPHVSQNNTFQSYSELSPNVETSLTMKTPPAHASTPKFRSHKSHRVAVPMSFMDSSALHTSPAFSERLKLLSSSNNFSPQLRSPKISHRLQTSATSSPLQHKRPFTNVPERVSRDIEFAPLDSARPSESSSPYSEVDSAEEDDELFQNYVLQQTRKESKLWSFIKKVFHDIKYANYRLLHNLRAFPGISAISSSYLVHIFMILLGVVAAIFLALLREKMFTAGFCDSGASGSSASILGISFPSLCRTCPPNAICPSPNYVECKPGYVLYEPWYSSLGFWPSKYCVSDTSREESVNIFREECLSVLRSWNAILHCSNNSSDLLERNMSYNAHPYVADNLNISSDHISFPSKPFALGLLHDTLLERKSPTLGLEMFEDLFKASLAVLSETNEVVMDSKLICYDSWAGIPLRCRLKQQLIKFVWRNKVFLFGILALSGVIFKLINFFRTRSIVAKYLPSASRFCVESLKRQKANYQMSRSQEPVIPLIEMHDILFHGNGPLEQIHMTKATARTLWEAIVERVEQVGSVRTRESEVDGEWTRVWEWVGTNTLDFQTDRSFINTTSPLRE

[4] = target: T4, Ima1 MYTH bait (S. pombe) (UniProt O13681); test: two-hybrid; MYTH confirmation: bait and prey plasmids sequentially transformed into the haploid reporter strain SLJ5572; ten-fold dilution series on SD-leu-trp-ade-his + 25 mM 3-AT at 30°
T4 sequence: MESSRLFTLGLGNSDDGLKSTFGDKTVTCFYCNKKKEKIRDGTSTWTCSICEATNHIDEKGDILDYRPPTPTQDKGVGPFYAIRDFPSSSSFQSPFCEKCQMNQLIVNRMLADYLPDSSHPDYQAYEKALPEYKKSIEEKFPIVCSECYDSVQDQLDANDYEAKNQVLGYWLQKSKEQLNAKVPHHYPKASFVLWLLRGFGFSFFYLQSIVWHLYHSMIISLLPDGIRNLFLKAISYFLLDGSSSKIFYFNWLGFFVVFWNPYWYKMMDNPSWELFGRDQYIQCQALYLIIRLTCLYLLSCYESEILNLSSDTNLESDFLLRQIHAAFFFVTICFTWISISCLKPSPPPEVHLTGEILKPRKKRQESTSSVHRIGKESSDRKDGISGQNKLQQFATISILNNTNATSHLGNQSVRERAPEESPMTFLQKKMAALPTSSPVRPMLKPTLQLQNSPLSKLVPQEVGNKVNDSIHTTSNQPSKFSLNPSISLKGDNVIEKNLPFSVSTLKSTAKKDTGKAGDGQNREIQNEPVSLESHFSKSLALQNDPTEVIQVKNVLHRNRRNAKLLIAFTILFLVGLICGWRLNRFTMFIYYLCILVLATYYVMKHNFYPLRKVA

[5] = target: T4, Ima1 MYTH bait (S. pombe); test: two-hybrid; split-ubiquitin membrane yeast two-hybrid (MYTH) in S. cerevisiae; bait-Cub-LexA-VP16 strains mated with the arrayed Nub prey library, diploids spotted in quadruplicate on SD-leu-trp-ade-his with 25 mM 3-AT, imaged every 24 hr for 4 days; positive by a colony density cutoff
[6] = target: T2, Cut11 MYTH bait (wild type) (S. pombe); test: two-hybrid; MYTH confirmation: bait and prey plasmids sequentially transformed into the haploid reporter strain SLJ5572; ten-fold dilution series on SD-leu-trp-ade-his + 25 mM 3-AT at 30°
[7] = target: T5, Cut11 C525R MYTH bait (S. pombe) (UniProt O13961); test: two-hybrid; split-ubiquitin membrane yeast two-hybrid (MYTH) in S. cerevisiae; bait-Cub-LexA-VP16 strains mated with the arrayed Nub prey library, diploids spotted in quadruplicate on SD-leu-trp-ade-his with 25 mM 3-AT, imaged every 24 hr for 4 days; positive by a colony density cutoff
T5 sequence: T1 sequence with F521L, C525R

[8] = target: T1, Cut11 L521F MYTH bait (S. pombe); test: as above; remark: listed apart in the source
[9] = target: T2, Cut11 MYTH bait (wild type) (S. pombe); test: as above; remark: listed apart in the source
[10] = target: T6, Cut11 T498I MYTH bait (S. pombe) (UniProt O13961); test: as above
T6 sequence: T1 sequence with T498I, F521L

For “Sad1 MYTH prey (from UniProt Q09825 1-514)”, the binding [1] was “binds”, the binding [2] was “binds” and the binding [3] was “binds”.

B1: Nvj2 MYTH prey (protein, UniProt O94464 1-779)
chain: MFFAFLITYLLGGVTFLPFILFIYLLTRPTHKSEELRIIEPNNDCLTKLDKDIRIQGWIRVTTKFLQGKSGSVKVQEIPQDQLPKSSSDNAVTDRKTISPSGINNQYVIRNPKDVYYATVQAGKLHLFDPVKTSELLHVINLHEYLVVFYPGTVTENELFSNRNAIFLKYPAVSHKKESSTKSLLNKDLYVYGRTPSNKEDWNYALLSYSKISPAIKPLEAPIDFDYASVHHNLTALSSPDTDWLNAFIGRIFLGIHKTEGFKSLVVEKLTKKLSRIKTPGIMTDVKVIDVDVGEAIPTVNGLKFESLSNGGELIVSADIWYEGDCSFKAETTANIKFGSHFPSKTVPLALVIRLTHVSGKVRLLIKPPPSNRVWYAFYEKPRLHLIVEPMVARKQLTNNYLINFITQKLVELVHETIVMPNMNDLAFFIDNEAPIKGGLWDIELFRAPTIQKPAEKDAKAERKKSGLSSSTSEESLNRHISKRSSNSNDTAPSSHIIADKNLEPTSNIQLKKNPDGNLVETSELSDSDENSVLSNKSSTLSKKVVENTSPLKYTHSASKSFIGEVQDSLQALKTKAHKPRSIGGDSSQTTLSETTKKYGSVAKKSFFQGVSDAKSFVKKIKSTYIDDSSSNSPSDIESNYSADDNEISKSKAQNAIDFNVTNTHSPSRSISSEKSYKAAERGQQDKHNDVLVDLNPNVEAEKSNPHSNSQKTSKNDMSRNQRNKYAKEIMTGQPTLHPQGQLPIQNVEQRATHKPLPRPPVQVETREPVRPVPPIPKL
In the case of B1, the binding [4] is reported as “binds” and the binding [5] is reported as “binds”.

B2: Tts1 MYTH prey (protein, UniProt Q9Y7Z5 1-279)
chain: MEPKQRVVKPLKERVLPVVKNTQFVWFSGQVIVLISSVLYALQAIPFRSAPPFLFKSAAFGAIVAYAIVLYKTYSPNLTSRASWNKHFFARLMLDDNVQYFILALSMLIDRPILFSLAPYAIYATFHISTYLRSVLLPAIYPNISDAKTASYASRVSNLLNQYTRSQFQPAMQLVASLETFLLFRLFFGVFLRKNSISRLVGYIFFLRMRYTNSHFTRASIKAVSLRMDRLVADNRVPPVIKNAWHTFKTYVSKFGASPVGTAQSRPTASSSTTAPSST
With B2 the binding [6] was “binds”, the binding [7] was “no binding” and the binding [8] was “binds”. The binding [9] was “binds” and the binding [10] was “no binding”.
